Measurements published in PubChem BioAssay AID1347071 (National Center for Advancing Translational Sciences (NCATS), 2019).
Screen size: about 410,000 compounds; about 260 (0.063%) were called active. The shares of active, inactive and inconclusive entries below differ from those in the screen. The call rests on the fitted dose curve; in most records, active means well fitted activation curve with a large enough effect; inconclusive means small, poorly fitted or top-dose-only effect; inactive means no such curve, though single readings can be large or run the other way. Potencies of inconclusive entries are left out as doubtful fits.

Assay: qHTS for compounds that reverse cellular toxicity of Amyloid beta (A-beta) peptide in yeast: Primary Screen; further: nearly all actives have a fitted effect of over 55% in size
Settings: yeast expressing A-beta42, growth rescue, OD600, 48 h; growth rescue: at 46.1 µM (top of the series), 0% DMSO, 100% iron-clioquinol control
How it was run: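 Yeast growth medium received pinned compounds, then yeast cells expressing toxic A-beta were added; plates incubated at 30 C for 48 hr. Growth read as absorbance at 600 nm, normalized to DMSO and equimolar FeCl3 plus clioquinol controls.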
Potency means the concentration at half of the fitted maximal effect; tags describe the fitted curve by direction and shape.

Row | Compound | Potency | growth rescue
1 | CNC(=S)N/N=C(\C)c1ccc(C)c(C)c1 | inconclusive [activator, full curve, poor fit] | –
2 | CCc1ccc(Nc2ncnc3sc4c(c23)CCCC4)cc1 | – | inactive: -14.5%
3 | COc1ccc(-c2cc(C3CCN(c4ccc(C(C)=O)cc4[N+](=O)[O-])CC3)[nH]n2)cc1 | inconclusive [activator, partial curve] | –
4 | Fc1ccc([C@@H]2Nc3ccccc3[C@@H]3C=CC[C@@H]32)cc1 | active: 12.6 µM | –
5 | COc1ccc(S(=O)(=O)N2CCCCCC2)cc1C(=O)NCc1ccccc1Cl | – | inactive: 5.13%
6 | Cc1ccc(CNC(=O)c2nnn(Cc3ccc(F)cc3)c2N)cc1 | – | inactive: 1.1%
7 | CCn1c2c(c(=O)n3ncc(C(=O)Nc4ccc(OC(F)(F)F)cc4)c13)CN(Cc1ccc(OC)cc1)CC2 | inconclusive [activator, partial curve, poor fit] | –
8 | O=C(c1ccc(Nc2nc3ccccc3n3nnnc23)cc1)N1CCN(c2ccc(F)cc2)CC1 | inconclusive [activator, partial curve, poor fit] | –
9 | O=c1cc(C(F)(F)F)[nH]c2ccc(OC(F)(F)F)cc12 | – | inactive: -37.6%
10 | Cc1ccc(S(=O)(=O)C2(C(=O)Nc3ccc(C(C)C)cc3)CC2)cc1 | inconclusive [activator, partial curve, poor fit] | –
11 | CCn1c(COc2ccc(Cl)cc2)nnc1SCc1ccc(C#N)cc1 | – | inactive: -27.2%
12 | O=C(CCC1CCCCC1)Nc1cccnc1 | inconclusive [activator, partial curve] | –
13 | O=C(CCC1COc2ccccc2O1)NCC1COc2ccccc2O1 (configuration not stated) | inconclusive [activator, partial curve, poor fit] | –
14 | O=C1CSC(=Nc2cccc(Cl)c2Cl)N1 | inconclusive [activator, partial curve, poor fit] | –
15 | COc1ccc(-c2nc3ccccc3n2Cc2ccc(C)cc2)cc1 | inconclusive [activator, partial curve, poor fit] | –
16 | O=S(=O)(c1cccnc1)N1CCn2cccc2C1c1ccccc1F (configuration not stated) | inconclusive [activator, single point] | –
17 | CCN(CC)c1ccc(C=Nc2ccc(C)cc2)c(O)c1 | – | inactive: 23%
18 | CCC(C(=O)Nc1ccccc1)n1nc(-c2cc(C)ccc2C)ccc1=O (configuration not stated) | – | inactive: -8.91%
19 | O=S(=O)(Nc1c(O)ccc2ccccc12)c1ccccc1 | inconclusive [activator, partial curve] | –
20 | Cc1nn(CC(=O)NC2CCC(C)CC2)c(C)c1[N+](=O)[O-] (configuration not stated) | inconclusive [activator, single point] | –
21 | O=C(COC(=O)CCSc1ccc(Cl)cc1)Nc1ccc(F)cc1 | inconclusive [activator, full curve, poor fit] | –
22 | CCCCC(=O)Nc1nnc(SCc2cc(=O)n3cc(C)ccc3n2)s1 | – | inactive: -8.19%
23 | CCOc1ccccc1NC(=S)N1CCCc2ccccc21 | inconclusive [activator, single point] | –
24 | CN=c1scc(-c2cc(OC)ccc2OC)n1/N=C/c1c(C)[nH]c2ccccc12 | inconclusive [activator, full curve, poor fit] | –

Row | Compound | Potency | growth rescue
25 | Cc1ccc(N)c([N+](=O)[O-])c1 | – | inactive: 1.52%
26 | COc1cccc(CCC(=O)O)c1OC | inconclusive [activator, single point] | –
27 | COc1ccc(Nc2nnc(SCC3CCCCO3)s2)cc1 (configuration not stated) | – | inactive: 5.45%
28 | O=C(NCc1ccccc1)C(c1cccs1)N(C(=O)c1csnn1)C1CC1 (configuration not stated) | inconclusive [activator, full curve, poor fit] | –
29 | COc1ccc2c(c1)C(=O)C(=O)N2CC1COc2ccccc2O1 (configuration not stated) | – | inactive: -89.6%
30 | COCCNC(=S)N/N=C(\C)c1ccc(OC(F)F)cc1 | inconclusive [activator, partial curve, poor fit] | –
31 | Cc1c(Cl)cccc1NC(=S)NCc1cccs1 | inconclusive [activator, single point] | –
32 | CCOc1ccccc1N1CN(Cc2ccccc2)CNC1=S | inconclusive [activator, single point] | –
33 | O=C(O)c1ccccc1Nc1cccc(OCc2ccc3ccccc3n2)c1 | – | inactive: -8.6%
34 | COc1ccc(NC(=O)c2cc(-c3ccc(F)cc3OC(C)C)n[nH]2)cn1 | – | inactive: 12.1%
35 | Oc1cccnc1Sc1cccc(C(F)(F)F)c1 | inconclusive [activator, partial curve] | –
36 | O=C(CCSc1ccccc1)OCn1nnc2ccccc2c1=O | inconclusive [activator, partial curve, poor fit] | –
37 | Cc1cc(NC(=O)C2CCCO2)ccc1Br (configuration not stated) | – | inactive: -3.16%
38 | O=C1C(=O)N(Cc2ccncc2)C(c2ccccc2F)/C1=C(\O)c1ccc2c(c1)OCCO2 (configuration not stated) | inconclusive [activator, single point] | –
39 | O=S(=O)(NCCc1csc2nc(-c3ccc(F)cc3)nn12)c1ccc2c(c1)OCCO2 | – | inactive: -11.9%
40 | Cc1ccc(CNC(=O)CCCn2c(=O)c3ccccc3n(Cc3ccccc3Cl)c2=O)cc1 | – | inactive: -9.25%
41 | c1ccc(Oc2c3ccccc3nc3ccccc23)cc1 | – | inactive: -2.99%
42 | CC(C)n1ncc2c(C(=O)N3CCN(c4ccc(F)cc4)CC3)cc(-c3ccccc3)nc21 | inconclusive [activator, single point] | –
43 | O=C(c1cc(-c2ccccc2)nc2ccccc12)N1CCc2ccccc2C1 | – | inactive: -23.9%
44 | O=C(NC(=S)NCc1ccc(Cl)cc1Cl)c1ccco1 | inconclusive [activator, partial curve, poor fit] | –
45 | CC(=O)N1CCCc2cc(S(=O)(=O)Nc3ccc(OC(F)(F)F)cc3)ccc21 | inconclusive [activator, partial curve, poor fit] | –
46 | CN(C(=O)CSc1cccc[n+]1[O-])C1CCCCC1 | inconclusive [activator, single point] | –
47 | Cc1ccc(Cl)cc1NC(=O)C(NS(=O)(=O)c1ccc2c(c1)CCC(=O)N2)c1ccccc1 (configuration not stated) | – | inactive: -8.55%
